The text below walks through data of the antibiotic and cytotoxicity screens of Wong et al. (2023).

The list shows a part of the results.

The experiment relates to S. aureus RN4220. Description: growth inhibition call (relative growth <= 0.2). As to conditions: 50 µM.
For the molecule `C[C@@H]1CN([C@@H](C)CO)C(=O)c2cccc(NC(=O)Nc3ccc(C(F)(F)F)cc3)c2O[C@@H]1CN(C)C(=O)Nc1ccc2c(c1)OCO2`, the growth inhibition call is “inactive”.
In the case of `COCC(=O)Nc1ccc2c(c1)C(=O)N(C)C[C@@H](OC)[C@@H](C)CN(C(=O)c1ccccc1F)[C@@H](C)CO2` it was “inactive”; in that of `CC(O)(P(=O)([O-])O)P(=O)([O-])O.[Na+].[Na+]`, “inactive”.
Take `O=C(O)C[C@@H](NCCN[C@H](CC(=O)O)C(=O)O)C(=O)O`: the growth inhibition call is “inactive”.
On to `C[C@H](CO)N1C[C@H](C)[C@H](CN(C)Cc2ccc(Cl)c(Cl)c2)Oc2c(NC(=O)Nc3ccc(F)cc3)cccc2C1=O`, for which the growth inhibition call is “inactive”.
The result for `CN1C(=O)c2cc(NS(C)(=O)=O)ccc2OC[C@@H]2O[C@@H](CC(=O)N3CCOCC3)CC[C@@H]21` reads “inactive”; that for `C[C@@H]1CN([C@H](C)CO)C(=O)Cc2cc(NC(=O)CCN3CCOCC3)ccc2O[C@H]1CN(C)Cc1ccc2c(c1)OCO2`, “inactive”.
The result for `CC(C)NC(=O)N(C)C[C@H]1Oc2ccc(NC(=O)NC3CCCCC3)cc2C(=O)N([C@@H](C)CO)C[C@@H]1C` reads “inactive”; that for `COc1ccc(NC(=O)N(C)C[C@@H]2Oc3ccc(NC(=O)CCN4CCOCC4)cc3CC(=O)N([C@H](C)CO)C[C@H]2C)cc1`, “inactive”; that for `C[C@@H]1CN([C@H](C)CO)C(=O)Cc2cc(NC(=O)CCCCCC(=O)Nc3ccccc3N)ccc2O[C@H]1CN(C)Cc1ccc(-c2ccccc2)cc1`, “inactive”.
For the molecule `CCC(=O)NCCN1CCN(C(=O)CC)CC1`, the growth inhibition call was “inactive”.
The result for `CCCNC(=O)N1C[C@]2(CCN(CC2)C(=O)Cc2cccnc2)c2c([nH]c3cc(ccc23)OC)[C@H]1CO` reads “inactive”.
With `O=C(C[C@H]1CC[C@H](NC(=O)CN2CCOCC2)[C@H](CO)O1)NCCc1ccncc1`, the growth inhibition call is “inactive”.
In the case of `COc1ccc(NC(=O)N(C)C[C@H]2OCCCC[C@H](C)Oc3ccc(NS(=O)(=O)c4ccc(C)cc4)cc3C(=O)N([C@H](C)CO)C[C@@H]2C)cc1` it was “inactive”; in that of `COc1ccc(S(=O)(=O)Nc2ccc3c(c2)C(=O)N([C@@H](C)CO)C[C@@H](C)[C@@H](CN(C)S(=O)(=O)c2ccccc2)O3)cc1`, “inactive”.
On to `COCCOC(=O)N1C(=O)[C@@]2(c3ccccc31)[C@H](c1ccccc1OCCO)N1[C@H](c3ccccc3)[C@H](c3ccccc3)OC(=O)[C@H]1[C@@H]2C(=O)Nc1nc2ccccc2s1`, for which the growth inhibition call is “inactive”.
Consider `C[C@@H]1CN([C@H](C)CO)C(=O)c2cc(NC(=O)NC3CCCCC3)ccc2O[C@@H]1CN(C)Cc1ccc(Cl)c(Cl)c1`, for which the growth inhibition call is “inactive”.
Regarding `C=CCN1C(=O)[C@]2(O[C@@H](CCOC(=O)NCCCCCC(=O)NO)[C@H]([Si](C)(C)c3ccc(OC)cc3)[C@H]2C)c2cc(I)ccc21`, the growth inhibition call is “inactive”.
Regarding `O=c1c(O)c(-c2ccc(O)c(O)c2)oc2cc(O)ccc12`, the growth inhibition call was “inactive”.
As for `C[C@@H]1CCCCO[C@@H](CN(C)C(=O)Nc2ccc(C(F)(F)F)cc2)[C@H](C)CN([C@H](C)CO)C(=O)c2cc(NC(=O)C3CCCCC3)ccc2O1`, the growth inhibition call was “inactive”.
For the molecule `CO[C@H]1CN(C)C(=O)c2ccc(NS(=O)(=O)c3cn(C)cn3)cc2OC[C@H](C)N(Cc2cccc(F)c2)C[C@H]1C`, the growth inhibition call was “inactive”.
As to `C[C@H](CO)N1C[C@H](C)[C@@H](CN(C)Cc2ccc(Oc3ccccc3)cc2)Oc2ccc(NC(=O)C3CC3)cc2CC1=O`, the growth inhibition call was “inactive”.
In the case of `CC(C)NC(=O)Nc1ccc2c(c1)CC(=O)N([C@H](C)CO)C[C@@H](C)[C@H](CN(C)Cc1ccc(Oc3ccccc3)cc1)O2` it was “inactive”; in that of `Cc1noc(C)c1NC(=O)N(C)C[C@@H]1Oc2ccc(NS(=O)(=O)c3ccccc3)cc2CC(=O)N([C@H](C)CO)C[C@H]1C`, “inactive”; in that of `O=C(Nc1ccc2c(c1)[C@@H]1C[C@@H](CC(=O)N3CCc4ccccc4C3)O[C@H](CO)[C@@H]1O2)C1CCOCC1`, “inactive”.
Turning to `COc1cnc(SC)n(C)c1=O`, the growth inhibition call was “inactive”.
Consider `CNC(=O)c1ccc2c(c1)nnn2C`, for which the growth inhibition call was “inactive”.
In the case of `COc1ccc(S(=O)(=O)Nc2ccc3c(c2)C(=O)N([C@@H](C)CO)C[C@H](C)[C@@H](CN(C)C(=O)Nc2ccc(F)cc2)OCCCC[C@H](C)O3)cc1`, the growth inhibition call is “inactive”.
The result for `CN1C(=O)c2cc(NC(=O)Cc3cccs3)ccc2OC[C@@H]2O[C@H](CC(=O)NCCCN3CCOCC3)CC[C@@H]21` reads “inactive”.
The result for `O=C1CCc2c(ccc3ccccc23)O1` reads “inactive”.
